Measured values taken from publication PMC12136788.
Some of the results follow.

B1: chr8:63210610:63210711:+|3pUTR|ENSG00000185728|msi1|total|mutant (ssRNA)
RNA: GGGAGUUCUACAGUCCGACGAUCCAUGAAGUAAAAAUUUAUUACUCCCGGUAUUCACCCGCUAAAUAAACACCGUUCUUGUUCCGCAAGCAUAUGUUGUUCCUCAGCUCUUUUCUCCAGCUUUUGCAGUGUCCUGGCAUCCUUCAACAGAGGAUUGAGCAUCA
B2: ENSG00000070961:be:win_6401|3pUTR|ENSG00000070961|bound_else_gene|NA|bound_elsewhere_windowed (ssRNA)
RNA: GGGAGUUCUACAGUCCGACGAUCCUGGCUUCAUUUCUGUGAAAUUGCUCUUUGAAAAUUUCUUUUUACACGUGUAAGCCAACUGAGAUACCGUGAUGGUGUUGAUUUCUUUCAAUGAUGCUUACCAUCUAUUUUAGCCACUGACAACAGAGGAUUGAGCAUCA
B3: chr17:29166540:29166641:-|CDS|ENSG00000196535|unk|FALSE|unique (ssRNA)
RNA: GGGAGUUCUACAGUCCGACGAUCCUGGACUCGGGCCACCUAAGUACAGCCAGCUCCAGCGAUGACCUCAAGGGUGAGGAGGGUAGCUUCCGUGGCUCGGUGCUGCAGCGGGCAGCCAAGUUCGGCUCACUGGCCAAGCAGAACCAACAGAGGAUUGAGCAUCA
B4: chr7:6403675:6403689:+|3pUTR|ENSG00000136238|msi1_unk|total|mutant (ssRNA)
RNA: GGGAGUUCUACAGUCCGACGAUCACUGUCACUUGACCAAUACUGACCCUCUUUACCUCGCCCACGCGGACACACGCCUCCUGCCGUCGCUUUGCCUAUUGAUGUUCCUUUGGGUCUGUGAGGUUCUGUAAACUGUGCCCGUGCCAACAGAGGAUUGAGCAUCA
B5: chrX:71300841:71300885:+|3pUTR|ENSG00000147140|msi1_unk|FALSE|overlapping (ssRNA)
RNA: GGGAGUUCUACAGUCCGACGAUCCCCCAUAUAUUACCCCUUCAUGUCCUAAAGAAGACAUUUUCUCUUAGAGAUUUUCAUUUUAGUGUAUCUUUAAAAAAAAAUCUUGUGUUAACUUGCCUCCAUCUUUUUCUUGGGUGAGGACAACAGAGGAUUGAGCAUCA
B6: ENSG00000107863:be:win_2951|CDS|ENSG00000107863|bound_else_gene|NA|bound_elsewhere_windowed (ssRNA)
RNA: GGGAGUUCUACAGUCCGACGAUCAGGAAGAGCAGCCCAUCAGUGUUAAUGCUUGCUUGAUAGACAUCUCUUACAGUGAGACCAAGAGGAAAAAUGUGUUUCGACUCACCACGUCCGACUGUGAAUGCCUGUUUCAGGCUGAAGCAACAGAGGAUUGAGCAUCA
B7: ENSG00000070961:be:win_4851|3pUTR|ENSG00000070961|bound_else_gene|NA|bound_elsewhere_windowed (ssRNA)
RNA: GGGAGUUCUACAGUCCGACGAUCCAAUGUUUUUUUAAAAGACAUUUCAGCUUCUUUACUCAGUUCUGCAUAUACAGUGCAUCAGUCUGUUCUCUUUGACCACAAUUGGAAUACAUUUCAAGAUGGUAACAGCCCCAUGAAGUACAACAGAGGAUUGAGCAUCA
B8: chr7:137014887:137014989:+|CDS|ENSG00000181072|unk|FALSE|unique (ssRNA)
RNA: GGGAGUUCUACAGUCCGACGAUCGCUACUUGGCUACUGAUUAGAGAACGCAAAAUGAAUAACUCAACAAACUCCUCUAACAAUAGCCUGGCUCUUACAAGUCCUUAUAAGACAUUUGAAGUGGUGUUUAUUGUCCUGGUGGCUCAACAGAGGAUUGAGCAUCA
B9: chr4:110049619:110049852:-|3pUTR|ENSG00000170522|msi1|total|mutant (ssRNA)
RNA: GGGAGUUCUACAGUCCGACGAUCUUGUUCAAUGUGACAUAACCGUAUUAUAAUUGGUUAAGCCGCUUAAUGAUCCGGCAAACCCGAUGAAAAGAUCCGGGGCUUCCACACUGCACCGAUUACACGCACACCGCCACGCAUACACAACAGAGGAUUGAGCAUCA
B10: chr17:80295660:80295761:+|CDS|ENSG00000173821|msi1|total|mutant (ssRNA)
RNA: GGGAGUUCUACAGUCCGACGAUCGAGUAAACUGAAAACAGGCCUGAUUGUCCUUUUUGCCGUGGAAAAAAUUGAGCUUUUAUCCGAAGGCAGCCUGGACUGGUUGUGUCACCUCCUAACCUCAGAUGCCAGCUCACCAGAUGACAACAGAGGAUUGAGCAUCA
B11: chr2:158176520:158176661:-|CDS|ENSG00000153237|control|control|control (ssRNA)
RNA: GGGAGUUCUACAGUCCGACGAUCGCUGUUGUUGCUCAAUUUGAUCCUGUUAGAAUGAUGUCAGAUACAAUGGCAUCAAAAGCUAGAAUGGGCAUUGAAAUUGAAGAAGAAUUUAUUCUUCAAAAGCCACUCUUCACAUUGAAUCAACAGAGGAUUGAGCAUCA
B12: chr4:70689993:70690094:+|CDS|ENSG00000132467|unk|FALSE|unique (ssRNA)
RNA: GGGAGUUCUACAGUCCGACGAUCAGAGCCAAAAUUAGAAGAAGAGGCCAGGUUCGUGAAGUUCGUAAAGAAGAGCAACGUUAUAGUGGUGAAUUAUCUGGCAUUCGUGCAGGAGUUAAAAAGAGCAUUAAGCUUAAAUGAAGUCAACAGAGGAUUGAGCAUCA
B13: chr7:101137743:101137929:+|3pUTR|ENSG00000106366|msi1|total|mutant (ssRNA)
RNA: GGGAGUUCUACAGUCCGACGAUCCCACUGAGGCCCUUUGCAGGAUGGAACUACGGGGCUUACAGGAGCUUUUGUGUGCCUGGCCGAAACUAUUUCUGUUCCAGUCACAUUGCCAUCACUCUUGUACUGCCUGCCACCGCGGAGCAACAGAGGAUUGAGCAUCA
B14: chr5:56893553:56893673:+|CDS|ENSG00000095015|unk|total|mutant (ssRNA)
RNA: GGGAGUUCUACAGUCCGACGAUCUGCUCCAUCGAUCCCUUCACAUUUGUCUCCUGGUUUACGAGAUGUGGCUCUUCGUUGUUCCGAACUUCAACCUCAGGACAGACCUCCAUCAAGAGAGCUACUGAAGCAUCCAGUCUUUCGCAACAGAGGAUUGAGCAUCA
B15: chr2:1633339:1633490:-|3pUTR|ENSG00000130508|msi1|total|mutant (ssRNA)
RNA: GGGAGUUCUACAGUCCGACGAUCUUCAUAAGCCACAUUCCGAAACAGGUUUGCUUUCAGCUGUCACUUGCACACAUACUGCCCCGUUGUGAACCAAAUGUGAAAAAACCUCCUUCAUCCCAUUGUGUAUCUGAUACCUGCCGACAACAGAGGAUUGAGCAUCA
B16: chr2:135840511:135840612:-|3pUTR|ENSG00000076003|msi1|total|mutant (ssRNA)
RNA: GGGAGUUCUACAGUCCGACGAUCGCUUCAGCACUUCCUUUGGUGUGUUUCCUGUCCCAGUGAAGUUGGAACCAAAUAAUGUGCCGUCUCUAUAACCAAUACCUUUGUUUUCAUGUGUAAGAAAAGGCCCAUUACUUUUAAGGUCAACAGAGGAUUGAGCAUCA
B17: chr2:147927148:147927248:+|CDS|ENSG00000121989|msi1_unk|FALSE|overlapping (ssRNA)
RNA: GGGAGUUCUACAGUCCGACGAUCUGAAACCAUUGAAGAAUGUUGGGAUCACGACGCAGAAGCCAGGUUAUCAGCUGGAUGUGUAGGUGAAAGAAUUACCCAGAUGCAGAGACUAACAAAUAUUAUUACCACAGAGGACAUUGUCAACAGAGGAUUGAGCAUCA
B18: chr1:61462620:61462721:+|3pUTR|ENSG00000162599|unk|total|mutant (ssRNA)
RNA: GGGAGUUCUACAGUCCGACGAUCCUGUGGGCGUCCAUUCUUAUUCAACUAAAUCUCCACAGGUUUUUUGAGCUGGUGUGGAUCCGUUUAACUCUUGUAUUCAACCAUCCGUGCUACCACCUUCUCACAUUACAAUACAAUUACCAACAGAGGAUUGAGCAUCA
B19: chr12:110551788:110551968:-|CDS|ENSG00000196850|control|control|control (ssRNA)
RNA: GGGAGUUCUACAGUCCGACGAUCUUCUCAGGGACUUUAAUGCGGACGUGUGAACGUUUAGUAAAAGAAGGACGGUUCGUACCUAGUAAUCCCAUUGGAAUUCUCACCACAAGCUACUGUGAGUUGCUGCAAAAUAAAGUCCCUCAACAGAGGAUUGAGCAUCA
B20: ENSG00000198589:be:win_1401|CDS|ENSG00000198589|bound_else_gene|NA|bound_elsewhere_windowed (ssRNA)
RNA: GGGAGUUCUACAGUCCGACGAUCGCAUUCAAUUGGAGGAGUACAAGUACUAUUUCCACUUUUUGCACAGUUGGAUUACAGGCAAUAUUUGUCUGAUGAGAUUGAUUUGACUAUAUGUUCAACCUUGCUGGCCUUUAUCAUGGACAACAGAGGAUUGAGCAUCA
B21: chr7:115017934:115018035:+|3pUTR|ENSG00000135272|unk|FALSE|unique (ssRNA)
RNA: GGGAGUUCUACAGUCCGACGAUCUGAGAUGAAACGUAGUUUCUAGUUAUAUCAUUACUUAAAGGGCUUAAAAAGAAAAAACUUAGCAAACUUUUGAAUCUUUCUUUUAUUGCUAUUUACACAUACAUACACACAUACAAAACCCAACAGAGGAUUGAGCAUCA
B22: chr12:20680103:20680206:+|CDS|ENSG00000172572|unk|total|mutant (ssRNA)
RNA: GGGAGUUCUACAGUCCGACGAUCCUUACAGAACCACAAGAUGUGGAAGAAAGUCAUUGAAGAGGAGCAACGGUUGGCAGGCACCGAAAAUCAAUCCCUGGACCAGACCCCUCAGUCGCACUCUUCAGAACAGAUCCAGGCUAUCAACAGAGGAUUGAGCAUCA

Target: MSI1 full-length (mouse, UniProt Q61474 1-362)
Test: nsRBNS (natural sequence RNA bind-n-seq); RBNS binding buffer (assumed for nsRBNS): 25 mM Tris pH 7.5, 150 mM KCl, 3 mM MgCl2, 0.01% Triton X-100, 500 ug/ml BSA, 20 U/ml SUPERase-In, 4 C; UNK is unkempt and MSI1 is Musashi-1; names of the RNAs are library labels; protein concentration not given here; high values mean tight binding

UniProt Q61474, sequence (Q61474 whole entry): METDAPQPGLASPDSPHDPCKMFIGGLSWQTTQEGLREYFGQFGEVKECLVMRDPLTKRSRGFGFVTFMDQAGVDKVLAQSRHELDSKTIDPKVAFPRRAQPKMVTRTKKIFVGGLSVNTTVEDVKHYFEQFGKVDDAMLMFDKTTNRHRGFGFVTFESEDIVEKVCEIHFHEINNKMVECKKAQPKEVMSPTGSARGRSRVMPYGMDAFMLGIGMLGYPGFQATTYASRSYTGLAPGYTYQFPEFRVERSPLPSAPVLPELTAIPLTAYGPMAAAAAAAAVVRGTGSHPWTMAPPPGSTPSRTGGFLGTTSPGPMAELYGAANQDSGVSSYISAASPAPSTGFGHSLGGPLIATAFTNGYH

Binder | binding signal
B1 | 1.33 enrichment R
B2 | 0.46 enrichment R
B3 | 0.512 enrichment R
B4 | 0.582 enrichment R
B5 | 16.5 enrichment R
B6 | 0.444 enrichment R
B7 | 0.446 enrichment R
B8 | 0.188 enrichment R
B9 | 0.468 enrichment R
B10 | 0.355 enrichment R
B11 | 0.406 enrichment R
B12 | 12.4 enrichment R
B13 | 0.331 enrichment R
B14 | 0.405 enrichment R
B15 | 0.388 enrichment R
B16 | 0.29 enrichment R
B17 | 1.1 enrichment R
B18 | 0.557 enrichment R
B19 | 0.701 enrichment R
B20 | 0.204 enrichment R
B21 | 14.7 enrichment R
B22 | 0.465 enrichment R
